The source of these data is PubChem BioAssay (EPA / NIEHS).

As a reminder, the AC50 is the midpoint of the concentration-response curve, whichever way the signal moves.

The nature of experiment [1]: BSK_3C_Proliferation: Cell Proliferation Assessment in the BioMAP Diversity Plus: 3C Assay (AID 2283006).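 Also: potency may reflect either rise or fall in cell number versus DMSO.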 The settings on record: primary human endothelial cells (HUVEC). In short, it runs like this: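 Proliferation as total protein: sulforhodamine B (0.1%) stain of TCA-fixed subconfluent human umbilical vein endothelial cells, absorbance 560 nm, 48 h after dosing. Activity fitted in both directions against DMSO baseline.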

Read-out in experiment [2]: Monokine induced gamma interferon (MIG), CXCL9 (gene 4283)
Put plainly: BSK_3C_MIG: BioMAP Diversity Plus: 3C Assay for Monokine induced gamma interferon (MIG) Biomarker Activity (AID 2283021).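 Also: MIG protein level measured by immunoassay in the treated endothelial cultures.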 As to conditions: actives raise or lower the signal; primary human endothelial cells (HUVEC). In short, it runs like this: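 ELISA measurement of MIG in human umbilical vein endothelial cells 24 h after treatment. Cytotoxicity tracked by SRB staining in parallel cultures; gain or loss of signal fitted relative to DMSO.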

Read-out in experiment [3]: Thrombomodulin, THBD (gene 7056)
Put plainly: BSK_3C_Thrombomodulin: BioMAP Diversity Plus: 3C Assay for Thrombomodulin Biomarker Activity (AID 2283029). The settings on record: actives raise or lower the signal; primary human endothelial cells (HUVEC). A digest of the protocol: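 ELISA measurement of thrombomodulin on HUVEC surface 24 h after chemical dosing; activity fitted in both directions relative to DMSO vehicle.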

Read-out in experiment [4]: Monokine induced gamma interferon (MIG), CXCL9 (gene 4283)
Put plainly: BSK_hDFCGF_MIG: BioMAP Diversity Plus: hDFCGF Assay for Monokine induced gamma interferon (MIG) Biomarker Activity (AID 2283063). As to conditions: actives raise or lower the signal; primary human foreskin fibroblasts. A digest of the protocol:
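Fibroblasts (human foreskin, primary) dosed, 24 h, MIG by ELISA; fit bidirectional vs DMSO.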

Read-out in experiment [5]: Transforming growth factor beta 1 (TGFb1), TGFB1 (gene 7040)
Kind of experiment: BSK_KF3CT_TGFb1: BioMAP Diversity Plus: KF3CT Assay for Transforming growth factor beta 1 (TGFb1) Biomarker Activity (AID 2283072). The settings on record: actives raise or lower the signal; primary human keratinocytes with fibroblasts. In short, it runs like this: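 ELISA quantifies TGF-b1 at 24 h post-dose in a primary human skin co-culture of keratinocytes and fibroblasts, with gain or loss judged against DMSO. Parallel SRB total-protein staining flags overt cytotoxicity.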

Read-out in experiment [6]: Interleukin-1 alpha (IL1a), IL1A (gene 3552)
Put plainly: BSK_LPS_IL1a: BioMAP Diversity Plus: LPS Assay for Interleukin-1 alpha (IL1a) Biomarker Activity (AID 2283080). The settings on record: actives raise or lower the signal; primary human HUVEC with PBMC. A digest of the protocol: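 HUVEC/PBMC co-culture, LPS system; 24 h after dosing; IL-1a by ELISA; gain or loss of signal fitted bidirectionally vs DMSO baseline.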

Read-out in experiment [7]: CD40, CD40 (gene 958)
Kind of experiment: BSK_SAg_CD40: BioMAP Diversity Plus: SAg Assay for CD40 Biomarker Activity (AID 2283088). As to conditions: actives raise or lower the signal; primary human HUVEC with PBMC. A digest of the protocol: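 HUVEC/PBMC co-culture, 24 h post-dose; CD40 by ELISA, fluorescence intensity; bidirectional fit vs DMSO negative control.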

In experiment [8] the target is human Adenosine Transporter (Adot), SLC29A1 (gene 2030) (UniProt Q99808). Kind of experiment: NVS_TR_hAdoT: NovaScreen (NVS) Transporter Assay for human Adenosine Transporter (Adot) (AID 2283368; active = hit-call score of the fitted dose curve at least 0.9, where 1 is the maximum). A digest of the protocol: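 Binding displacement on U937 extracted protein, read 1 h post-dose by filtration and scintillation counting. Primary duplicate test at 25 uM, then singleton concentration series with 50 uM top; DMSO baseline.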

Read-out in experiment [9]: ABC Transporter (ABCC3), ABCC3 (gene 8714)
Kind of experiment: LTEA_HepaRG_ABCC3: Life Technologies and Expression Analysis (LTEA) Assay for ABC Transporter (ABCC3) using HepaRG (AID 2283462). As to conditions: actives raise or lower the signal; mRNA level, 48 h. A digest of the protocol:
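qRT-PCR read-out of ABCC3 transcript, normalized to three housekeeping genes (ACTB, GAPDH, POLR2A), after 48 h chemical exposure of human HepaRG cells. Eight half-log concentrations, highest 100 uM, in 0.5% DMSO; gain or loss fitted relative to DMSO baseline.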

Read-out in experiment [10]: Fatty Acid-Binding Protein 1 (FABP1), FABP1 (gene 2168)
Kind of experiment: LTEA_HepaRG_FABP1: Life Technologies and Expression Analysis (LTEA) Assay for Fatty Acid-Binding Protein 1 (FABP1) using HepaRG (AID 2283494). As to conditions: actives raise or lower the signal; mRNA level, 48 h. A digest of the protocol:
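Values reflect bidirectional concentration-response fitting of FABP1 mRNA change against 0.5% DMSO controls. Human HepaRG cultures received eight half-log doses (top 100 uM) for 48 h; expression quantified by TaqMan qRT-PCR with housekeeping-gene normalization.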

Read-out in experiment [11]: sulfotransferase 2A1 (SULT2A1), SULT2A1 (gene 6822)
Put plainly: LTEA_HepaRG_SULT2A1: Life Technologies and Expression Analysis (LTEA) Assay for sulfotransferase 2A1 (SULT2A1) using HepaRG (AID 2283531). The settings on record: actives raise or lower the signal; mRNA level, 48 h. In short, it runs like this:
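HepaRG, 48 h chemical exposure, 8-pt half-log curve from 100 uM in 0.5% DMSO, duplicates. Readout: TaqMan qRT-PCR of SULT2A1 mRNA, housekeeping-normalized. Bidirectional fit vs DMSO baseline.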

A short description of experiment [12]: ATG_M_19_XSP2: Attagene TRANS-FACTORIAL Multi-Species (XSP2) HepG2 Assay for M32 Transcription Factor (Internal Marker) (AID 2283822; active = hit-call score of the fitted dose curve at least 0.9, where 1 is the maximum). In short, it runs like this:
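Internal background marker in a multi-species nuclear receptor TRANS panel: transfected HepG2 cells exposed 24 h, with 3 nM 6-alpha-fluorotestosterone and 1.5 nM norgestrel present. Readout is RT-PCR of reporter transcripts resolved by capillary electrophoresis, gain-of-signal versus DMSO.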

For experiment [13], the target named is human Peroxisome Proliferator-activated Receptor delta (PPARd), PPARD (gene 5467) (UniProt Q03181). Kind of experiment: ATG_PPARd_TRANS: Attagene TRANS-FACTORIAL HepG2 Assay for human Peroxisome Proliferator-activated Receptor delta (PPARd) (AID 2283002; active = hit-call score of the fitted dose curve at least 0.9, where 1 is the maximum). In short, it runs like this: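 Measured quantity: GAL4-UAS reporter transcript induction in HepG2 after 24 h chemical dosing, with NR-Gal4 chimeras supplied by transient transfection. Detection by RT-PCR and capillary electrophoresis; upward fit against DMSO.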

The target of experiment [14] is Bile acid receptor (Homo sapiens) (UniProt Q96RI1). Kind of experiment: OT_FXR_FXRSRC1_1440: Odyssey Thera (OT) 24-hour HEK293T Protein-Complementation Assay for Farnesoid X receptor/SRC-1 Co-activator (AID 2283384; active = hit-call score of the fitted dose curve at least 0.9, where 1 is the maximum). A digest of the protocol:
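Protein-fragment complementation: FXR and SRC-1 fused to reporter fragments that reassemble on interaction, read by fluorescence intensity. Human HEK293T cells measured 24 h post-dose; positive-direction fit versus DMSO.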

Experiment [15] can be described thus: CEETOX_H295R_OHPREG: CeeTox H295R High-throughput Steroidogenesis Assay for OH-Pregnenolone (OHPREG) (AID 2283434). The settings on record: actives raise or lower the signal.
A short description of experiment [16]: CEETOX_H295R_ESTRONE: CeeTox H295R High-throughput Steroidogenesis Assay for Estrone (AID 2283441). The settings on record: actives raise or lower the signal. In short, it runs like this:
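Estrone secreted into medium quantified by LC-MS/MS after dansyl chloride derivatization, following 48 h chemical exposure (0.1% DMSO final) of forskolin-prestimulated (10 uM, 48 h) H295R cells; gain or loss fitted against DMSO; MTT viability in same wells.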

The nature of experiment [17]: CEETOX_H295R_MTT_cell_viability: Viability Assessment in the CeeTox HT-H295R MTT Assay (AID 2283718).
Experiment [18] addresses Retinoic acid receptor alpha (Homo sapiens) (UniProt P10276). Put plainly: ATG_RARa_TRANS: Attagene TRANS-FACTORIAL HepG2 Assay for human Retinoic Acid Receptor alpha (RARa) (AID 2283005; active = hit-call score of the fitted dose curve at least 0.9, where 1 is the maximum). A digest of the protocol:
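HepG2 cells transiently transfected with multiple reporter units expressing chimeric RARα-GAL4 fusion, with GAL4-UAS-driven reporters. After 24 h compound exposure, reporter mRNA induction quantified by RT-PCR and capillary electrophoresis with fluorescent labeling; gain-of-signal fitted relative to DMSO control.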

The target of experiment [19] is human Vitamin D Receptor (VDR), VDR (gene 7421) (UniProt P11473). Kind of experiment: ATG_VDR_TRANS: Attagene TRANS-FACTORIAL HepG2 Assay for human Vitamin D Receptor (VDR) (AID 2283022; active = hit-call score of the fitted dose curve at least 0.9, where 1 is the maximum). A digest of the protocol: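 RT-PCR/capillary electrophoresis read-out of reporter mRNA induction in transiently transfected HepG2; 24 h dosing; chimeric NR-Gal4 (TRANS format); gain-of-signal fit against DMSO baseline.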

A short description of experiment [20]: BSK_3C_SRB: Viability Assessment in the BioMAP Diversity Plus: 3C Assay (AID 2283023).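 Also: cells read 24 h after compound dosing; fitted both ways against DMSO so a hit may be signal rise or drop.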 As to conditions: primary human endothelial cells (HUVEC). In short, it runs like this: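 HUVEC, 24 h post-dose; 10% TCA fix, 0.1% SRB stain, A560 nm. Bidirectional curve fit vs DMSO negative control.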
Read-out in experiment [21]: Monocyte Chemoattractant Protein-1 (MCP1), CCL2 (gene 6347)
Kind of experiment: BSK_SAg_MCP1: BioMAP Diversity Plus: SAg Assay for Monocyte Chemoattractant Protein-1 (MCP1) Biomarker Activity (AID 2283090). As to conditions: actives raise or lower the signal; primary human HUVEC with PBMC. In short, it runs like this:
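Values derive from bidirectional fitting of ELISA-measured MCP1 against DMSO controls. Readings were taken 24 h after dosing human vascular endothelial cells co-cultured with peripheral blood mononuclear cells under superantigen stimulation.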

Experiment [22] deals with Retinoic acid receptor RXR-alpha (Homo sapiens) (UniProt P19793). Kind of experiment: OT_NURR1_NURR1RXRa_0480: Odyssey Thera (OT) 8-hour HEK293T Protein Complementation Assay for Nurr1/retinoid X receptor (RXR) (AID 2283385; active = hit-call score of the fitted dose curve at least 0.9, where 1 is the maximum). In short, it runs like this:
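Interaction of Nurr1 with RXRα read as reconstituted reporter fluorescence in a HEK293T fragment-complementation system, 8 h post-treatment; increase over DMSO baseline analysed.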

Experiment [23] can be described thus: CCTE_Shafer_MEA_dev_network_spike_number: CCTE's Neural Network Formation Assay for Number of Network Spikes, Shafer Lab (AID 2284048).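 Also: synchronized bursts across electrodes counted on days 5 7 9 12 and integrated as AUC.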 In short, it runs like this: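 Extracellular recordings from 16-electrode wells track network formation in rat cortical cultures under continuous treatment from plating. The endpoint is network spike number, expressed as AUC across DIV 5–12 relative to DMSO vehicle.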

For some assays here: The hits were mostly taken out for another list; the other results follow. Results filed as inconclusive are left out. This is a selection; strong and weak results do not stand in their true shares. Calls of active or inactive are those of the source. The calls were made as follows, unless noted: active = hit-call score of the fitted dose curve at least 0.9, where 1 is the maximum; inactive = score below 0.9.

Chain of UniProt Q03181 (Q03181 whole entry, looked up, the tested form may be a part): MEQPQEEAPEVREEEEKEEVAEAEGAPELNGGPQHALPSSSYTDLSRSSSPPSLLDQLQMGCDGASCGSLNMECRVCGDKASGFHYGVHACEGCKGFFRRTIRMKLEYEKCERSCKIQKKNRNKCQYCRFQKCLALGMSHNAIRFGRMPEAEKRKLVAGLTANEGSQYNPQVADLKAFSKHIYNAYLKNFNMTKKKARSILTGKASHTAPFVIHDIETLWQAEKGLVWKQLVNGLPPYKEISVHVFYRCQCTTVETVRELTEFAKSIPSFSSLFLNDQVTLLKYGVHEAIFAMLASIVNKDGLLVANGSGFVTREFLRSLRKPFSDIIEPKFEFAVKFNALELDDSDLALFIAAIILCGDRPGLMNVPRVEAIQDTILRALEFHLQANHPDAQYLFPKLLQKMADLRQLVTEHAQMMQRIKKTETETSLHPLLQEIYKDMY
Chain of UniProt Q96RI1 (Q96RI1 whole entry, looked up, the tested form may be a part): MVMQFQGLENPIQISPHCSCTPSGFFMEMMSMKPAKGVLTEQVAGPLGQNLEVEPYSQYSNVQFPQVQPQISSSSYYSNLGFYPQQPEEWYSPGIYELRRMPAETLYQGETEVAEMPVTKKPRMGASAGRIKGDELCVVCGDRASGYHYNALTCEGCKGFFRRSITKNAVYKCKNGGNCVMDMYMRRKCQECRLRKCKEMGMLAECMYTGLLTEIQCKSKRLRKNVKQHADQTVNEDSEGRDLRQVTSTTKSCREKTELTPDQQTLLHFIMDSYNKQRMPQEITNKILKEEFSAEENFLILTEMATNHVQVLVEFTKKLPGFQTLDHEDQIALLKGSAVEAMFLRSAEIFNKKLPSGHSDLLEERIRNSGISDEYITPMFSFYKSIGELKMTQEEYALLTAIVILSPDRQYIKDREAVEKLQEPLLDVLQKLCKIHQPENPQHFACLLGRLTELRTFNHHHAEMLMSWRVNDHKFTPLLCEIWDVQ
Chain of UniProt Q99808 (Q99808 whole entry, looked up): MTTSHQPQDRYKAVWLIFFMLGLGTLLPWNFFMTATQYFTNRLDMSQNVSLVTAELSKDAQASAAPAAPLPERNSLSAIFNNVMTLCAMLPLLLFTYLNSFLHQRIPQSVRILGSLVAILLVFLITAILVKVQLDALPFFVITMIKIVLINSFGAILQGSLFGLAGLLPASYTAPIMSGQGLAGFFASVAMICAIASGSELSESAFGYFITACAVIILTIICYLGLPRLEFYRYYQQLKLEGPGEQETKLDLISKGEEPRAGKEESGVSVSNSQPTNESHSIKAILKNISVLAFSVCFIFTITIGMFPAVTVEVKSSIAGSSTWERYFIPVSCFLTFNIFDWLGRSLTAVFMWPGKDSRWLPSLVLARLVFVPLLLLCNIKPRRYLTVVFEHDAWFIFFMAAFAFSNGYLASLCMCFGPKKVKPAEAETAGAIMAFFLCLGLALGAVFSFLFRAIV
Chain of UniProt P11473 (P11473 whole entry, looked up, the tested form may be a part): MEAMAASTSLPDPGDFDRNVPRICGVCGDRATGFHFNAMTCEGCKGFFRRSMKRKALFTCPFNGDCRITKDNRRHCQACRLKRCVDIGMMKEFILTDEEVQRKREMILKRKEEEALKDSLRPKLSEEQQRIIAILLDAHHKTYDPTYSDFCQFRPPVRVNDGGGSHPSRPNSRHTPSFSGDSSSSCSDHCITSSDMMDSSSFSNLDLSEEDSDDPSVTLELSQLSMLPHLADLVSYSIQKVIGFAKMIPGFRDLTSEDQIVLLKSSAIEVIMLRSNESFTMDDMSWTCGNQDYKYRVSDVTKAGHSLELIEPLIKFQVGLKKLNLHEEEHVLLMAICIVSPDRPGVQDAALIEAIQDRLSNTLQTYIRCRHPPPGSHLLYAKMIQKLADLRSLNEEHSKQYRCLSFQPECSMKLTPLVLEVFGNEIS
Chain of UniProt P19793 (P19793 whole entry, looked up, the tested form may be a part): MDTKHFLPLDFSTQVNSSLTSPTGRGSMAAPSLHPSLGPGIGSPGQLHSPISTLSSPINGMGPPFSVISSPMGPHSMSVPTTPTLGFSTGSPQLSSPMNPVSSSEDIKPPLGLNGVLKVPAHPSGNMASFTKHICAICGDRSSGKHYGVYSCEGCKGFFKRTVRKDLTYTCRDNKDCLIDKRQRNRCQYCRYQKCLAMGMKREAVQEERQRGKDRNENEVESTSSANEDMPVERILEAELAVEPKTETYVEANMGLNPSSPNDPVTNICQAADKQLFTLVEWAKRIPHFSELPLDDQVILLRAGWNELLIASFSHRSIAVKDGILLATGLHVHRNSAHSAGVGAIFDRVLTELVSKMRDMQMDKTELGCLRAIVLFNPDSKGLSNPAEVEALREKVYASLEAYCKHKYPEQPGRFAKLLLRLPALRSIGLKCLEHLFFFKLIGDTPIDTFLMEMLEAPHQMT
Chain of UniProt P10276 (P10276 whole entry, looked up, the tested form may be a part): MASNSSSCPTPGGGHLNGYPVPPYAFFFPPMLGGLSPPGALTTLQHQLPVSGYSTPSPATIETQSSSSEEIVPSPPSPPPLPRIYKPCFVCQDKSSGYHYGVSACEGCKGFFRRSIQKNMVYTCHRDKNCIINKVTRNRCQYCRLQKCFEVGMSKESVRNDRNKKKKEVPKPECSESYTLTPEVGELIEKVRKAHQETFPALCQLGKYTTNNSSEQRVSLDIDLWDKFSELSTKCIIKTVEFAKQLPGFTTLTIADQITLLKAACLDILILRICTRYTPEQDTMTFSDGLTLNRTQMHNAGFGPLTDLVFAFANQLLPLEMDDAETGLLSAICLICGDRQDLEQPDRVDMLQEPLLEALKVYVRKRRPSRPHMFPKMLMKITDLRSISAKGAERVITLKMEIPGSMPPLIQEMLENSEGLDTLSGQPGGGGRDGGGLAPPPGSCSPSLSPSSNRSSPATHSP

`CCN(CC)C(=S)SSC(=S)N(CC)CC`: the AC50 is active: 10.3 µM in experiment [1]; active: 36.9 µM in [2]; active: 29.8 µM in experiment [3]; active: 1.87 µM in experiment [4]; active: 10.9 µM in [5]; active: 20 µM in experiment [6]. The AC50 in experiment [7] was active: 32 µM. Besides, the outcome in experiment [8], in experiment [9], in experiment [10], in experiment [11] and in experiment [12] was inactive.

For `OC1CCC(C2CCCCC2)CC1` (stereo not drawn), the molecule was called inactive in [13], in experiment [14], in experiment [15], in [16] and in experiment [17].

In the case of `C[C@]12CC[C@@H]3c4ccc(O)cc4CC[C@H]3[C@@H]1CC[C@@H]2O`, the molecule was classed as inactive in experiment [18], in [19], in [21], in experiment [22] and in experiment [23]. The AC50 in experiment [20] is active: 12 µM.
